According to US20090143279A1 (priority 2007, published 2009):

These molecules were tested on cellular ATP levels. Settings: not given.

Molecule	ATP
COc1cc(/C=C/C(=O)O)cc(OC)c1OC [sinapic acid methyl ether]	0.600
C[N+](C)(C)CC(=O)O [betaine]	−0.215
C1COC(NC(C2CC2)C2CC2)=N1 [rilmenidine]	0.135

Same assay, conditions: 7.92 μM; composite Z-score vs DMSO

Molecule	ATP
[H]/N=C(\N/C(=N/[H])NCCCCCCNC(=N)NC(=N)Nc1ccc(Cl)cc1)Nc1ccc(Cl)cc1 [chlorhexidine]	−2.238

Same assay, conditions: 15.02 μM; composite Z-score vs DMSO

Molecule	ATP
C/C=C(/C(=C/C)c1ccc(O)cc1)c1ccc(O)cc1 [dienestrol]	−0.794

Same assay, conditions: 20 μM, 8 h

Molecule	decrease of ATP levels
OCCN1CCN(CCCN2c3ccccc3Sc3ccc(Cl)cc32)CC1 [Perphenazine, reference compound]	11%

Same assay, conditions: 20 μM, 24 h

Molecule	decrease of ATP levels
OCCN1CCN(CCCN2c3ccccc3Sc3ccc(Cl)cc32)CC1 [Perphenazine, reference compound]	27%

Same assay, conditions: 20 μM; composite Z-score vs DMSO

Molecule	ATP
C/C=C(/C(=C/C)c1ccc(O)cc1)c1ccc(O)cc1 [dienestrol]	0.336
Cc1cc(O)ccc1Cl [chlorocresol]	−0.105
[H]/N=C(\N/C(=N/[H])NCCCCCCNC(=N)NC(=N)Nc1ccc(Cl)cc1)Nc1ccc(Cl)cc1 [chlorhexidine]	−1.078
CC(=O)Oc1c(C)c(C)c2c(c1C)CCC(C)(CCCC(C)CCCC(C)CCCC(C)C)O2 (stereo not drawn) [alpha-tochopheryl acetate]	0.293

Same assay, conditions: Conc 20 μM; normalized score vs mock-treated (DMSO) wells

Molecule	ATP (composite Z-score)
COC(=O)C[C@H]1C(C)(C)C(=O)[C@@H]2CC3=C(CC[C@]4(C)C3=CC(=O)O[C@H]4c3ccoc3)[C@@]1(C)C2=O [carapin-8 (9)-ene]	0.562
pteryxin	−0.082
COc1ccc2c(c1)OCC(Cc1ccc(OC)c(OC)c1)C2=O (stereo not shown) [deoxysappanone B trimethyl ether]	1.619
caryophyllene	1.810
COc1ccc(-c2c(O)c3c(OC)c4c(cc3oc2=O)OC(C)(C)C=C4)cc1 [robustic acid, reference compound]	0.257

Same assay, conditions: composite Z-score vs DMSO wells; Conc 20 μM

Molecule	ATP
CC(C)=CCC1=C(O)C(=O)c2ccccc2C1=O [lapachol]	−0.409
CO[C@H]1[C@H](O)[C@H](O[C@H]2CC[C@@]3(C=O)[C@H](CC[C@@H]4[C@@H]3CC[C@]3(C)[C@@H](C5=CC(=O)OC5)CC[C@]43O)C2)O[C@@H](C)[C@@H]1O [peruvoside]	0.065
CC[N+](CC)(CC)CCOc1cccc(OCC[N+](CC)(CC)CC)c1OCC[N+](CC)(CC)CC [gallamine]	−0.341
Oc1c(Cl)cc(Cl)c(Cl)c1Cc1c(O)c(Cl)cc(Cl)c1Cl [hexachlorophene]	−5.584
N[C@@H](Cc1ccc(N(CCCl)CCCl)cc1)C(=O)O [melphalan]	1.590
CC1=C2C(=CO[C@H](C)[C@H]2C)C(O)=C(C(=O)O)C1=O [citrinin]	0.637
CC(=O)N[C@H]1[C@H]([C@@H](O)[C@@H](O)CO)O[C@@](O)(C(=O)O)C[C@@H]1O [N-acetylneuramic acid]	0.869
[H]/N=C(/N)NS(=O)(=O)c1ccc(N)cc1 [sulfaguanidine]	−0.667

Same assay, conditions: composite Z-score vs DMSO; Conc 20 μM

Molecule	ATP
CC(C)CCC[C@@H](C)[C@H]1CC[C@H]2[C@@H]3CC(=O)[C@H]4C[C@@H](O)CC[C@]4(C)[C@H]3CC[C@]12C [5alpha-cholestan-3beta-ol-6-one]	2.248
CC1(C)O[C@H]2CC(=O)OC[C@]23[C@H]2CC[C@@]4(C)[C@H](c5ccoc5)OC(=O)[C@H]5O[C@]54[C@]2(C)C(=O)C[C@@H]13 [limonin]	−0.078
CCCCCC(=O)Cc1cc(O)cc(O)c1C(=O)Oc1cc(CC(=O)CCCCC)c(C(=O)O)c(OC)c1 [arthonioic acid]	−0.458
C[C@@H]1CC[C@@]2(OC1)O[C@H]1C[C@H]3[C@@H]4CC=C5C[C@@H](O)CC[C@]5(C)[C@H]4CC[C@]3(C)[C@H]1[C@@H]2C [diosgenin]	−0.057
COc1cc(O)c2c(=O)cc(-c3ccc(OC)c(-c4c(O)cc(O)c5c(=O)cc(-c6ccc(O)cc6)oc45)c3)oc2c1 [ginkgetin]	−2.623
CO/N=C(\C(=O)N[C@@H]1C(=O)N2C(C(=O)O)=C(COC(C)=O)CS[C@H]12)c1csc(N)n1 [cefotaxime]	0.479
CC1(C)[C@@H](O[C@H]2O[C@H](C(=O)O)[C@@H](O)[C@H](O)[C@H]2O[C@@H]2O[C@H](C(=O)O)[C@@H](O)[C@H](O)[C@H]2O)CC[C@]2(C)[C@H]3C(=O)C=C4[C@@H]5C[C@@](C)(C(=O)O)CC[C@]5(C)CC[C@@]4(C)[C@]3(C)CC[C@@H]12 [glycyrrhizic acid]	1.266
N[C@@H](CCC(=O)N[C@@H](CSC(CC(=O)O)C(=O)O)C(=O)NCC(=O)O)C(=O)O (stereo partly drawn) [S-(1,2-dicarboxyethyl)glutathione]	−0.160
C[C@]12CCC3c4ccc(OC(=O)c5ccccc5)cc4CCC3C1CCC2=O (stereo partly shown) [estrone benzoate]	0.592
COC(=O)C(C)c1ccc(C(=O)c2cccs2)cc1 (stereo not shown) [suprofen methyl ester]	0.771
CC(C)=CCC/C(C)=C/CC/C(C)=C/CO [farnesol]	0.026
Cc1cc(O)c(C=O)c2c1C(=O)Oc1c(C)c(O)c3c(c1O2)C(O)OC3=O (stereo not shown) [norstictic acid]	0.430

Same assay, conditions: composite Z-score vs mock-treated (DMSO) wells; Conc 20 μM

Molecule	ATP
COC(=O)[C@H](O)[C@H]1C(C)(C)[C@H](OC(C)=O)[C@@H]2CC3=C4CC(=O)O[C@@H](c5ccoc5)[C@]4(C)CC[C@@H]3[C@@]1(C)C2=O [swietenolide-3-acetate]	1.431
CC(=O)OC1CC[C@@]2(C)C(CC[C@H]3[C@@H]4CC=C(C(C)=O)[C@@]4(C)C(=O)C[C@@H]32)C1 (stereo partly shown) [3-acetoxypregn-16-en-12,20-dione]	1.152
COC[C@]12CN(C=O)[C@@H]3[C@@H]4[C@H](OC)[C@H]1[C@@]3([C@@H](OC)C[C@H]2O)[C@@H]1C[C@@]2(O)[C@H](OC(=O)c3ccccc3)[C@@H]1[C@]4(OC(C)=O)[C@@H](O)[C@@H]2OC [oxonitine]	0.116
CC(=O)c1c(O)c(C)c(O)c2c1oc1c(C(C)=O)c(O)c(C)c(O)c12 [diacetyldideisovaleryl-rhodomyrtoxin]	−0.179
COc1cc2occc2c2oc(=O)ccc12 [isobergaptene]	−0.303
CC(=O)OC1CC2C(C)(C)[C@@H](O)CC[C@]2(C)C2CC[C@]3(C)[C@H](c4ccoc4)OC(=O)[C@H]4O[C@]43[C@]12C (stereo partly drawn) [3beta-hydroxydeoxodihydrogedunin]	0.638
CCOC(=O)c1oc2c(OC)c(O)cc(O)c2c(=O)c1-c1cc(OC)c(OC)c(OC)c1	0.782
Cc1cc(O)c(C=O)c2c1C(=O)Oc1c(C)c(O)c3c(c1O2)C(O)OC3=O (stereo not shown) [norstictic acid]	2.102

Same assay, conditions: composite Z-score vs mock-treated (DMSO) wells; concentration of each compound in μM

Molecule	ATP
CCOC(=O)[C@H](CCc1ccccc1)N[C@@H](C)C(=O)N1[C@H](C(=O)O)C[C@H]2CCCC[C@@H]21 [trandoapril]	0.603

Same assay, conditions: doses ranging up to 40 μM, 48 hours, FIG. 10

Molecule	cellular ATP levels, dose response
CC[C@H](C)C(=O)O[C@H]1C[C@H](O)C=C2C=C[C@H](C)[C@H](CC[C@@H](O)C[C@@H](O)CC(=O)O)[C@H]21 [pravastatin, reference compound]	little to no effect

Same assay, conditions: normalized composite Z-score vs mock-treated (DMSO) wells; Conc 20 μM

Molecule	ATP
CC(=O)O[C@H]1C[C@@H](O)C(C)(C)[C@@H]2C[C@@H](OC(C)=O)[C@]3(C)[C@H](CC[C@@]4(C)[C@@H](c5ccoc5)OC(=O)[C@H]5O[C@@]534)[C@@]12C [3-deacetylkhivorin]	−0.078
CC1=CC2C(C(C)C)CCC(C)(O)C2CC1 (stereo not shown) [cadin-4-en-10-ol]	0.543
O=C(O[C@@H]1Cc2c(O)cc(O)cc2O[C@@H]1c1cc(O)c(O)c(O)c1-c1c([C@H]2Oc3cc(O)cc(O)c3C[C@H]2OC(=O)c2cc(O)c(O)c(O)c2)cc(O)c(O)c1O)c1cc(O)c(O)c(O)c1 [2′,2′-bisepigallocatechin digallate]	0.573
COc1ccc2c(=O)c(OC)c(-c3ccccc3)oc2c1 [3,7-dimethoxyflavone]	1.027
COc1cc(OC)c2c(OC)c(-c3ccc4c(c3)OCO4)c(=O)oc2c1 [derrusnin]	0.050
CC1C(=NO)CC2CC1C2(C)C (stereo not shown) [3-pinanone oxime]	0.209
